Laboratory results: PubChem BioAssay AID1671194 (National Center for Advancing Translational Sciences (NCATS), 2021)
Hit rate of the full screen: of about 140,000 compounds, about 240 (0.17%) were called active. This list was built around the results that the source calls inconclusive (neither active nor inactive); the mix of calls is not that of the screen. Calls come from the whole dose curve; as a rule, active = well fitted inhibition curve with a large enough effect; inconclusive = small, poorly fitted or top-dose-only effect; inactive = no such curve, though single readings can be large or run the other way. A potency beside an inconclusive call is a rough fit, not a confirmed value.

Experiment: Primary qHTS assay for inhibitors of alpha-synuclein gene (SNCA) expression; note: nearly all actives have a fitted effect of over 45% in size;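 for activity change, negative = inhibition: plate controls were DMSO cells for no effect and cell-free wells for full effect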
Settings: HEK-293 SNCA-luciferase knock-in, luminescence, 24 h; activity change, negative = inhibition: at 57.2 µM (top of the series) unless noted
Potency is the fitted concentration of half-maximal effect; tags give direction and shape of the fitted curve.

Potency, inconclusive:
COC(=O)CNC(=O)C1CCN(c2nccc(Nc3ccccc3OC)n2)CC1 8.91 µM [inhibitor, single point], COc1ccc(C2c3c(n(C)c4ccccc34)C(=O)N2CC(=O)Nc2c(C)cc(C)cc2C)cc1 (centres undefined) 0.708 µM [inhibitor, full curve, poor fit], Fc1ccc(Nc2nc(SCc3cccc(F)c3)nc3ccccc23)cc1 25.1 µM [inhibitor, single point], CCOc1ccc(Nc2nc(N)c(C(=O)c3ccccc3Cl)s2)cc1 22.4 µM [inhibitor, single point], Fc1ccc(CN2CCOC[C@H](Oc3ccccc3)C2)cc1 12.6 µM [inhibitor, single point], N#CCCn1c(=O)c(-c2cccc(C#N)c2)nc2cnc(Oc3cccc(Cl)c3)nc21 20 µM [inhibitor, single point], CCOC(=O)c1ccc(N2C(=O)c3[nH]nc(-c4ccc(C)cc4)c3C2c2ccc(O)cc2)cc1 (centres undefined) 39.8 µM [inhibitor, single point], CNC(=O)c1cn2c(n1)CN(C(=O)OCc1ccccc1)CC2 4.47 µM [inhibitor, single point], Cc1cccc(C)c1NC(=O)c1oc2c(c1C)-c1nn(Cc3ccccc3)cc1CC2 39.8 µM [inhibitor, single point], COc1ccc(NC(=O)N[C@H]2[C@H](O)[C@@H](N3CCC(Cc4ccccc4)CC3)[C@@H]3OC[C@H]2O3)cc1 0.631 µM [inhibitor, full curve, poor fit], O=C(NCc1ccc(F)cc1)N1CCCC(Cn2cnc3cccnc32)C1 (centres undefined) 3.98 µM [inhibitor, partial curve, poor fit], CCC1CCCCN1CCCNC(=O)CN1C(=O)CSc2ccc(S(=O)(=O)N3CCC(C)CC3)cc21 (centres undefined) 7.08 µM [inhibitor, single point], COc1ccc(C(=O)N[C@@H]2CN(Cc3ccccc3)C[C@H]2CN(C)C)cn1 39.8 µM [inhibitor, single point], O=C(NCC(c1ccccc1)c1ccccc1)c1nn(-c2ccccc2Cl)nc1CO 39.8 µM [inhibitor, single point], COc1ccc(Cl)cc1NC(=O)CN(C)S(=O)(=O)c1ccc(Br)s1 0.355 µM [inhibitor, full curve, poor fit], COC1CCC(C(=O)N2CCCn3nc(C)c(-c4ccccc4C(C)C)c32)CC1 (centres undefined) 28.2 µM [inhibitor, partial curve], O=C1CO[C@H]2CCN(Cc3cccc(OC(F)(F)F)c3)CC[C@@H]2N1Cc1c[nH]c2ccccc12 39.8 µM [inhibitor, single point], Cc1ccc(CNC(=O)CN(c2ccc(Cl)cc2Cl)S(=O)(=O)c2ccccc2)cc1 39.8 µM [inhibitor, single point], Cc1ccc(CCNC(=O)Cn2c(-c3cccs3)cc3cc(F)ccc32)cc1 39.8 µM [inhibitor, single point], COc1ccc(CCNC(=O)C2CCCN(Cc3cccc(-c4ccc(F)cc4F)c3)C2)cc1 (centres undefined) 39.8 µM [inhibitor, partial curve, poor fit], Cc1ccc([C@H]2C[C@@H](O)[C@@H](O)[C@@H]2NS(C)(=O)=O)cc1 5.01 µM [inhibitor, partial curve, poor fit], O=C(Cn1ncc2c3ccccc3n(Cc3ccccc3F)c2c1=O)NCCc1ccc(Cl)cc1 2.24 µM [inhibitor, single point], COc1cccc(CNC(=O)CSc2c3c(nc4ccc(Cl)cc24)CCCC3)c1OC 14.1 µM [inhibitor, single point], O=C(COc1ccccc1)Nc1ccc2n(c1=O)C[C@H]1C[C@@H]2CN(C(=O)c2ccccn2)C1 39.8 µM [inhibitor, single point], N#Cc1ccc(S(=O)(=O)N2CCc3c(nc(-c4ccc(F)cc4)[nH]c3=O)C2)cc1 2.82 µM [inhibitor, partial curve, poor fit], COc1ccc(-c2noc(CC3CCN(C(=O)c4ccc(C)nc4)CC3)n2)cc1 39.8 µM [inhibitor, partial curve, poor fit], CCOC(=O)c1nc(Nc2ccc(C(=O)OCC(C)C)cc2)c2ccccc2n1 2.82 µM [inhibitor, full curve], O=C(CCc1cn(Cc2ccccc2F)c2ccccc12)NCc1ccc(Cl)cc1 39.8 µM [inhibitor, single point], CC(C)CCCC1CN(C(=O)c2cn(C3CCC(N)CC3)nn2)CCO1 (centres undefined) 12.6 µM [inhibitor, single point], CCOc1ccc(NC(=O)C2CCN(S(=O)(=O)c3cc(-c4noc(C)n4)ccc3C)CC2)cc1 3.16 µM [inhibitor, single point], COc1cccc(-c2c(C(=O)NCc3cccc(Cl)c3)nc3sccn23)c1 39.8 µM [inhibitor, single point], N#Cc1ccc(C(=O)N2CCC(Cc3nc(-c4ccncc4)n[nH]3)C2)cc1 (centres undefined) 39.8 µM [inhibitor, single point], CCC(=O)N1CCc2cc(S(=O)(=O)CCC(=O)Nc3ccc(Cl)c(C(F)(F)F)c3)ccc21 28.2 µM [inhibitor, partial curve, poor fit], O=C(c1ccc(F)cc1)N1CCN(c2nccc(Nc3ccccc3Cl)n2)CC1 25.1 µM [inhibitor, single point], COc1ccc(NC(=O)CSc2oc(-c3cccs3)nc2S(=O)(=O)c2ccc(Br)cc2)c(OC)c1 1 µM [inhibitor, partial curve, poor fit], NC(=O)c1ccccc1OCC(=O)N1CC(CNC(=O)Nc2ccccc2)C2(C1)CN(c1ccccc1)C2 (centres undefined) 7.08 µM [inhibitor, single point], Cc1ccc(Nc2sc(C(=O)c3ccccc3)c(N)c2C(=O)NC(C)C)cc1 12.6 µM [inhibitor, single point], CCC[C@H]1CN(C(=O)c2cccc(N3CCOCC3)c2)C[C@@H]1N 39.8 µM [inhibitor, single point], COc1ccc(CNC(=O)c2cnn(-c3ccc(C)cc3)c2-n2cccc2)cc1OC 39.8 µM [inhibitor, single point], COc1cc(Cl)ccc1C(=O)NC1CCN(c2cc(C(F)(F)F)nc(C)n2)CC1 14.1 µM [inhibitor, partial curve, poor fit], Cc1cc(C)c(CNC(=O)c2cc(-c3ccccc3C)cc3c2OCCN3C)c(=O)[nH]1 15.8 µM [inhibitor, partial curve, poor fit], CC(C)(C)c1ccnc(N[C@H]2CO[C@H]3[C@@H]2OC[C@H]3OC(=O)Nc2cccc(C(F)(F)F)c2)n1 4.47 µM [inhibitor, full curve, poor fit], O=C(c1cccc(Cl)c1)N1CCN(Cc2ccccc2-c2ccccc2F)CC1 39.8 µM [inhibitor, single point], CCCCOc1ccc(CNC(=O)Cc2ccc(NC(=O)N3CCSc4ncccc43)cc2)cc1 39.8 µM [inhibitor, single point], Cc1cccc(NC(=O)N2CCCCC2c2nc(-c3cnccn3)n[nH]2)c1 (centres undefined) 8.91 µM [inhibitor, single point], Cc1ccc(Nc2ccnc(N3CCCC3C(=O)N3CCCC(C)C3)n2)cc1 (centres undefined) 11.2 µM [inhibitor, partial curve, poor fit], CN1CC(=O)N(C2CCNCC2)Cc2c(NCCCc3ccccc3)ncnc21 14.1 µM [inhibitor, partial curve, poor fit], COc1ccc(-c2[nH]c3ccccc3c2SCCNC(=O)c2ccc(S(=O)(=O)N(C)C)cc2)cc1 3.55 µM [inhibitor, full curve, poor fit]

Activity change, negative = inhibition, inactive:
O=C(COc1ccc(F)cc1)NC1CCc2n[nH]c(=O)n2CC1 (centres undefined) -1.66%, CCN1C(=O)CCc2cc(NC(=O)c3ccc(OC(F)(F)F)cc3)ccc21 28.3%, O=C(NC[C@@H]1CCCN1)C1CCN(c2nc(-c3ccccc3)nc3c2CCC3)CC1 -22.6%, C#CCN(C)C(=O)[C@@H]1CCCN1[C@@H](C(=O)NC)c1ccc(OC)cc1 -4.38% [at 87.6 µM], O=C1NCCOCCCN(C(=O)Nc2ccc3c(c2)OCCO3)[C@H]2CCCC[C@@H]12 91%, O=C(N1CCC(n2cc(-c3nc(-c4ccccc4)no3)nn2)C1)C1(c2ccccc2)CC1 (centres undefined) -3.59%, O=C(COc1ccc(F)cc1)N1CCOc2ccc(N3CCOCC3)cc2C1 11.2%, COc1ccc(CNC(=O)[C@@H]2Cc3cn(CC4CC4)c4cccc(c34)[C@H](CC(C)C)N2)cc1 -29.8%, Cc1ccsc1C(=O)N1CCOc2ccc(CN3CCc4ccccc4C3)cc2C1 2.92%, CC(C)CCNC[C@H]1O[C@H](Cc2cc(CN3CCCCC3)on2)CC[C@@H]1O -15.8% [at 87.6 µM], O=C(Nc1cnc(-c2ccccc2)nc1)c1ccc(F)c(F)c1 14.5%
